Data as given in article PMC4336329 (PLoS ONE, 2015).
In all, about 310,000 compounds went through this assay and about 14,000 (4.5%) showed an effect of 50% or more. Effects have a minus sign here. Some of the results follow.

What follows are compounds tested against human ether-à-go-go-related gene (hERG) potassium channel (human, UniProt Q12809) (assay: primary screen, population patch clamp on CHO cells stably expressing hERG).
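Also: peak tail current of the secondary pulse compared with the same well before compound.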

Chain of human ether-à-go-go-related gene (hERG) potassium channel (Q12809 whole entry, looked up): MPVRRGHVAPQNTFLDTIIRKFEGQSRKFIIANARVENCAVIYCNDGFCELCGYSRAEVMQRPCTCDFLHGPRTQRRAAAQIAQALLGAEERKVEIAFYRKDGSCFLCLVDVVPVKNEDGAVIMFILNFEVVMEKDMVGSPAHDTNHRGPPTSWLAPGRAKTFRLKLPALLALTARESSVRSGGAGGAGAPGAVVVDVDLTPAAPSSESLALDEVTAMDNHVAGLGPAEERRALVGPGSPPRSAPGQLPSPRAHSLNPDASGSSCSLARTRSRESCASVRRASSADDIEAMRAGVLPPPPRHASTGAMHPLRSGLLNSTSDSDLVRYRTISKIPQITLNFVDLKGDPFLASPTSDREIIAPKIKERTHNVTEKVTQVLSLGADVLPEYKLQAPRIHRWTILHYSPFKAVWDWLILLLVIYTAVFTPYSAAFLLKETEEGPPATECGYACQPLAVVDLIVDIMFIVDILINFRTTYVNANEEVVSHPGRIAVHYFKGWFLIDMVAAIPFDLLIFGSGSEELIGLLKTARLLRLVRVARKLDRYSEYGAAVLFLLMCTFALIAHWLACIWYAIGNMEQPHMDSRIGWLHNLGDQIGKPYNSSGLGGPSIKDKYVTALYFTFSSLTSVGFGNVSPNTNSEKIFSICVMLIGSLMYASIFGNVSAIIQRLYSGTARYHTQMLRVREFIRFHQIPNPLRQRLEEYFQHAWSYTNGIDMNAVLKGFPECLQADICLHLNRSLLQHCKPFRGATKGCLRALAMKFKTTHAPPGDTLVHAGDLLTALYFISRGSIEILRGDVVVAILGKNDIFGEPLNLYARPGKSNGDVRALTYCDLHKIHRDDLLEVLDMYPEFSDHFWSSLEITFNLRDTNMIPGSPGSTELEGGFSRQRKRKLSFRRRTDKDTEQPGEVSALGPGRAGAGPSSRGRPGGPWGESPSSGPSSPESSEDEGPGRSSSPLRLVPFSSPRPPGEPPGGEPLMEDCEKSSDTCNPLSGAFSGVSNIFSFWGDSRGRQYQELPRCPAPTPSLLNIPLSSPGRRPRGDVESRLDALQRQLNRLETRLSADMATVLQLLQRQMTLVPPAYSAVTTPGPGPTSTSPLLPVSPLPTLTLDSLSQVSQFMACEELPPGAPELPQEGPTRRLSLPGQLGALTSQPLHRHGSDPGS

| SMILES | hERG current change (%, negative = inhibition) at 10uM [%] |
| --- | --- |
| CC1CCCCN1C(=O)COc1ccc(F)cc1 (centres unmarked) | 13 |
| COCCN(C(=S)Nc1ccccc1OC)C1CCN(C(C)C)CC1 | -18.7 |
| OCC1CCCN(c2nc(CN3CCCCC3)nc3scc(-c4ccccc4)c23)C1 (centres unmarked) | -63.7 |
| CCn1nc(C)c(C2C(C#N)=C(N)OC3=C2C(=O)CC(C)(C)C3)c1C (centres unmarked) | 2.06 |
| CCN(CCO)Cc1csc2cc(C)ccc12.Cl | -12.6 |
| COc1cccc(N=C2C(=O)N3CCCc4cccc2c43)c1 | 11.4 |
| CS(=O)(=O)N(CC(=O)N1CCN(Cc2ccc3c(c2)OCO3)CC1)C1CCCCC1 | -1.17 |
| O=C(c1ccc(CS(=O)Cc2ccccc2Cl)o1)N1CCN(c2cccc(Cl)c2)CC1 (centres unmarked) | -41.8 |
| CCN(C(=S)NC(=O)C1CCCC1)C1CCCCC1 | 14.6 |
| O=C1C(=O)N(Cc2cccs2)c2ccccc21 | -5.14 |
| COC(=O)c1c(Cl)c2n3ccccc3c(C)c(-c3ccccc3)c-2c1C(=O)OC | -18.2 |
| COc1ccc(NC2CCCN(C(=O)c3cccc(N4CCNC4=O)c3)C2)cc1 (centres unmarked) | 16.4 |
| COc1ccc2c(c1)c(C(=O)O)c(C)n2-c1ccc(Cl)cc1 | 16.7 |
| COc1ccccc1C(=O)N1N=C(c2ccc(NS(C)(=O)=O)cc2)CC1c1cccs1 (centres unmarked) | -29.1 |
| O=C(NCc1ccco1)C1CC(=O)N(c2cccc(Cl)c2)C1 (centres unmarked) | -11 |
| O=S(=O)(c1ccc(Cl)c(NC(=S)Nc2ccccc2N2CCOCC2)c1)N1CCOCC1 | 4.99 |
| COc1ccc(C2(C)NC(=O)N(CC(=O)Nc3c(C)n(C)n(-c4ccccc4)c3=O)C2=O)cc1 (centres unmarked) | 23.9 |
| COC(=O)c1ccccc1OC(=O)c1cc2ccccc2oc1=O | 19.9 |
| O=C(CSc1nc2c(sc3ccccc32)c(=O)n1CCCN1CCCC1)NCc1ccccc1 | -80.8 |
| CCOC(=O)CCc1c(C)c2ccc(OCC(=O)OC(C)C)cc2oc1=O | -7.25 |
| Cc1ccc(C)c(C(=O)COC(=O)CN2C(=O)C3C4CCC(C4)C3C2=O)c1 (centres unmarked) | 3.74 |
| O=C(NCc1ccccc1)c1c(O)c2cccc3c2n(c1=O)CCC3 | 5.37 |

| SMILES | hERG current change (%, negative = inhibition) at 10uM [%] |
| --- | --- |
| Cc1ccccc1OCC(=O)Nc1ccc2c(c1)C(=O)N(CCC(=O)O)C2=O | -2.34 |
| CCOC(=O)N1CCN(C(=O)CSc2nnc(-c3cccc(Cl)c3)o2)CC1 | -10.5 |
| O=C(Nc1cc(=O)[nH]c2nc(-c3ccccc3)nn12)c1ccc(Cl)cc1 | 14.3 |
| Cc1cccc(-c2nnc(SCC(=O)O)n2Cc2ccccc2)c1 | -6.26 |
| Cl.OC(c1cccc(Cl)c1)(c1cccc(Cl)c1)C1CN2CCC1CC2 (centres unmarked) | -81.8 |
| CCCc1cc(=O)oc2c(C)c(OCC(=O)N3CCC[C@@H]3C(=O)O)ccc12 | 11.7 |
| Clc1cccc(CNCC2CCCO2)c1Cl (centres unmarked) | -20.9 |
| Cc1c(-c2ccccc2)oc2c(C(=O)OCC(=O)Nc3ccc(F)cc3)cccc2c1=O | -3.13 |
| FC(c1nc2ccccc2[nH]1)C(F)(F)F (centres unmarked) | 27.9 |
| CCOc1ccccc1-c1nc2c(C(C)(C)C)nn(C)c2c(=O)[nH]1 | -1.87 |
| OCc1cccc[n+]1CCc1ccccc1.[Br-] | 21.8 |
| Cc1ccccc1S(=O)(=O)Cc1ccc(C(=O)NC2CCCCCC2)o1 | -31.9 |
| CCN(CC)S(=O)(=O)c1ccc(-c2cn3ccc(C)cc3n2)cc1 | 7.52 |
| CC12CCC(=O)N1C(C(=O)Nc1ccc(F)c(F)c1F)CS2 (centres unmarked) | 11 |
| N#CC1=C(SCC(N)=O)NC(=O)CC1c1ccccc1Cl (centres unmarked) | 0.122 |
| O=C(c1cc(-c2ccc3c(c2)OCO3)on1)N1CCN(c2ccc(F)cc2)CC1 | -10.1 |
| N#Cc1ccccc1OCC(=O)N(C1CCCCC1)C1CCS(=O)(=O)C1 (centres unmarked) | 2.42 |
| C=CCOC(=O)c1c(C)nc2cc3c(cc2c1C)OCO3.Cl | -13.6 |
| Cc1ccc(C)c(N2CCN(C(=O)CN3C(=O)c4ccccc4C3=O)CC2)c1 | -19.1 |
| COc1cc2c(C(=O)NCc3ccc4c(c3)OCO4)cn(C)c(=O)c2cc1OC | 13.1 |
| COC(=O)c1ccc(NS(=O)(=O)c2cc(-c3cc(C)no3)ccc2OC)cc1 | 4.72 |
| Cc1cccc(-c2oc3ccccc3c2C#CCCCCO)c1 | 20.2 |
